We go through 43 compounds from ChEMBL document CHEMBL4888484, “Replenishing the malaria drug discovery pipeline: Screening and hit evaluation of the MMV Hit Generation Library 1 (HGL1) against asexual blood stage Plasmodium falciparum ,using a nano luciferase reporter read-out” (2022).

In all, about 150,000 compounds went through this assay and about 540 (0.36%) showed an effect of 50% or more. This is one part of the list.

This assay concerns Plasmodium falciparum. The assay is described as follows: Primary screen in NF54 nanoGlo assay, in single point, at 2uM, 72h; a lower Z score goes with more inhibition. The assay is classed as functional, Erythrocyte. The conditions noted are these: timepoint 72 hour.
As usually defined, the % Inhibition is the change of the read-out against control, counted positive when it falls. Take `CCCc1ccc(CN(CC)CCn2cccn2)o1`: the “% Inhibition” value is -3% and the Z score is on record as 0.62.
In the same order, the values of `CC(C)Oc1cc(N[C@H]2CCN(C(=O)c3ccccn3)C[C@@H]2O)nc(N)n1` are -5% and 0.86.
In the same order, the values of `CCc1cc2c(NCc3nccc(C(F)(F)F)n3)ncnc2s1` are -8% and 1.24.
In the same order, the values of `Cc1csc(Cn2ccc(-c3cccc(-c4nc(C)cnc4C)c3)n2)n1` are -9% and 1.19.
For the compound `COc1ccsc1C(=O)NCCc1ccc2c(c1)OCO2`, the “% Inhibition” value is given as -7% and the Z score stood at 1.14.
For the compound `O=C(NCC(F)(F)F)N1CCC[C@H]1c1nnc2ccccn12`, the “% Inhibition” value is -6% and the Z score worked out at 0.88.
In the same order, the values of `CNC(=O)c1cccc(C(=O)N2CC[S+]([O-])CC(C)C2)c1` (stereo unspecified) are -10% and 1.83.
The corresponding values for `CN1CCN(c2c(F)cc(C(=O)Nc3nc(-c4ccccc4)cs3)c(F)c2F)CC1` are 3% and -0.36.
In the same order, the values of `O=C(NCc1cccnc1)N(Cc1cccc(O)c1)CC1CC1` are -12% and 1.66.
On to `Cc1ncc(CNS(=O)(=O)CC2(C)CCCCC2)o1`, for which the “% Inhibition” value is 0% and the Z score turned out to be 0.05.
Consider `Cc1c(Cl)cccc1N1C(=O)[C@H]2[C@@H](C1=O)[C@]1(C(=O)Nc3ccccc31)N1CCC[C@@H]21`, for which the “% Inhibition” value is -10% and the Z score amounted to 1.25.
In the same order, the values of `Cc1nc(CC(C)C)cc(C(=O)NCc2csc(C)n2)n1` are -7% and 1.47.
In the case of `O=C(Cc1ccco1)NC1CC(NCC(F)(F)F)C1` (stereo unspecified), the “% Inhibition” value is recorded as -6% and the Z score turned out to be 0.64.
In the same order, the values of `COCC1(c2noc([C@@]34CCCC[C@@H]3NCC4)n2)CCCC1` are -9% and 1.25.
The corresponding values for `O=C(NCC1(CCO)CC1)c1ncoc1C(F)(F)F` are -8% and 1.09.
The corresponding values for `Nc1c(Br)cncc1C(=O)O` are 8% and -0.96.
As for `O=S(=O)(NCCCOCc1ccco1)N1CCCCC1`, the “% Inhibition” value was -8% and the Z score was found to be 1.08.
The corresponding values for `Cc1oc(C)c(C(=O)Nc2nc(-c3cccc(-n4cnnn4)c3)cs2)c1Br` are -42% and 4.87.
In the same order, the values of `C[C@H]1CN(Cc2ccc3c4c(cccc24)C(=O)OC3)CCN1` are 1% and -0.26.
In the same order, the values of `CCC(CC)C(=O)N1CC[C@H](N(CCN2CCOCC2)S(C)(=O)=O)C1` are -2% and 0.25.
In the case of `O=C(CC1CCCC1)NC1CCN(C(=O)c2ccc3[nH]nnc3c2)CC1`, the “% Inhibition” value was -17% and the Z score turned out to be 2.43.
`CCc1ccc(CNC(=O)[C@@H]2CCCCC(=O)N2C)cc1`: the “% Inhibition” value was -4% and the Z score was 0.51.
In the same order, the values of `C[C@H](NCc1cccc(-c2cccnc2)c1)c1cccc(O)c1` are 6% and -0.54.
In the same order, the values of `Cc1ccc2nc(-c3ccc(Cl)cc3)cc(C(=O)Oc3ccc(C)c(C)c3)c2c1` are 6% and -0.72.
The corresponding values for `O=C(CCCc1nnc2ccccn12)Nc1nc(CCC2CCCC2)n[nH]1` are 3% and -0.37.
Take `Cc1nnc(-c2cccc(NC(=O)[C@@H]3CCCCN3Cc3nc[nH]c3C)c2)s1`: the “% Inhibition” value is -23% and the Z score is on record as 3.06.
The corresponding values for `Cc1nc2ccccn2c1CN1CCN(Cc2ccccc2F)C(=O)C1` are -13% and 2.64.
In the same order, the values of `Cc1cc(C(=O)Nc2ccc([C@H]3OCC(=O)N(C(C)C)[C@@H]3CO)cc2)nn1C` are 33% and -3.7.
In the same order, the values of `CC(=O)Nc1ccc2c(c1)cc(C(=O)Nc1ccccc1)n2Cc1cccc(F)c1` are -5% and 0.93.
As to `CC(C)c1cc([C@@H]2CCCN2C(=O)c2ccco2)on1`, the “% Inhibition” value was -10% and the Z score was found to be 1.28.
The corresponding values for `CC[C@H](C)N(CC(=O)O)Cc1nc(CCC(C)C)no1` are -20% and 2.66.
In the same order, the values of `Cc1nc(-c2cccc(CNc3cc(C(C)C)nc4ncnn34)c2)cs1` are -11% and 1.73.
The corresponding values for `CN(C)[C@H]1CCCN(c2cc(C3CC3)ncn2)CC1` are -19% and 2.02.
On to `CCCOc1ccccc1[C@H](C)Nc1nnc(C2CC2)o1`, for which the “% Inhibition” value is listed as -8% and the Z score turned out to be 1.12.
Regarding `CCc1cc(NCC2(O)CCN(C(=O)c3nccc4occc34)CC2)nc(C)n1`, the “% Inhibition” value is 19% and the Z score is -2.46.
Regarding `Cc1cccc(CNC(=O)N[C@H]2CC[C@@H](CO)C2)c1Br`, the “% Inhibition” value was -7% and the Z score is 1.01.
In the same order, the values of `CC(C)C(=O)N(CC(=O)Nc1nc(-c2ccccc2)cn1-c1ccc(F)cc1)CC1CC1` are -8% and 0.9.
In the same order, the values of `Cc1ncsc1CN(C)C(=O)N[C@H]1CC(=O)N(c2ccccc2)C1` are 5% and -0.71.
The corresponding values for `Cc1nc2ncnn2c(Oc2ccc(-n3cccn3)cc2)c1C` are -18% and 2.14.
Regarding `CN(CCCNC(=O)NC1CC2CCC1O2)c1cccc(F)c1` (stereo unspecified), the “% Inhibition” value is listed as -18% and the Z score worked out at 1.5.
The corresponding values for `Cc1cccc(-c2nocc2CCC(=O)O)c1` are -30% and 2.61.
In the same order, the values of `Cc1cc(-c2nc(C)nn2C(C)(C)C)c2c(C)nn(C)c2n1` are -11% and 1.56.
In the same order, the values of `COc1cc(C)ccc1OCCN1CC[C@]2(CCCO2)CCC1=O` are -1% and 0.16.
